{"source": "paper PMC12820563", "about": "“FoxP3 forms a head-to-head dimer in vivo and stabilizes its multimerization on adjacent microsatellites”", "note": "The other results are listed elsewhere or left out."}
{"biological_target": "T1, MBP-FoxP1dN (Mus musculus, UniProt P58462 326-579)", "T1 sequence": "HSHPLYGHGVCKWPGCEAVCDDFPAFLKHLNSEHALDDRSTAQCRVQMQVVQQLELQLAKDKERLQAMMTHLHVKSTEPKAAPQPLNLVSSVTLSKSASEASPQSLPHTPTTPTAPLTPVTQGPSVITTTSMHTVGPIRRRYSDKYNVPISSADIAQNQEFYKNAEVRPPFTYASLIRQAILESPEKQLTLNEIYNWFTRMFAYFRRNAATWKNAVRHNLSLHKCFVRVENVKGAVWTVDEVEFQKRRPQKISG", "test": "PD-seq (MBP pull-down with sequencing); 20 mM Tris-HCl pH 7.5, 100 mM NaCl, 1.5 mM MgCl2, 0.4 uM protein, 0.1 uM dsDNA library, 30 min, room temperature, amylose pull-down; high values mean tight binding", "conditions": "protein: recombinant; tags: His6-MBP; chain copies: 2; dsDNA, one strand shown", "in_short": "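A degenerate double-stranded DNA library, filled in with Klenow, was added at 0.1 µM to 0.4 µM His6-MBP-tagged mouse FoxP3 or FoxP1 fragment lacking the N-terminus, expressed in E. coli. Incubation lasted 30 min at room temperature in Tris pH 7.5 buffer with NaCl and MgCl2, after which complexes were collected on amylose resin, washed three times, digested with proteinase K to free the DNA, barcoded by PCR and sequenced by Illumina. Binding is the pooled-replicate reads-per-million enrichment of pull-down over input.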"}
{"sequence": "GATGATTGTTCTCCCAGCTGATGAATTATTTTGTTCGAGTAAACAAATTTTCCTAATCTTTCTGTTCAAGCGCCATCTAC", "binding signal": "1.32 RPM ratio (pull-down/input)"}
{"sequence": "GATGATTGTTCTCCCAGCTGATGAATTTACTGACTCGAGTAAACAAATTTTCCTAATCTTTCTGTTCAAGCGCCATCTAC", "binding signal": "1.13 RPM ratio (pull-down/input)"}
{"sequence": "GATGATTGTTCTCCCAGCTGATGAATTTGTTGCGTCGAGTAAACAAATTTTCCTAATCTTTCTGTTCAAGCGCCATCTAC", "binding signal": "1.5 RPM ratio (pull-down/input)"}
{"sequence": "GATGATTGTTCTCCCAGCTGATGAATTATAACAATCGAGTAAACAAATTTTCCTAATCTTTCTGTTCAAGCGCCATCTAC", "binding signal": "1.68 RPM ratio (pull-down/input)"}
{"sequence": "GATGATTGTTCTCCCAGCTGATGAATTGTTTCGCTCGAGTAAACAAATTTTCCTAATCTTTCTGTTCAAGCGCCATCTAC", "binding signal": "1.18 RPM ratio (pull-down/input)"}
{"sequence": "GATGATTGTTCTCCCAGCTGATGAATTAGGGCTGTCGAGTAAACAAATTTTCCTAATCTTTCTGTTCAAGCGCCATCTAC", "binding signal": "0.826 RPM ratio (pull-down/input)"}
{"sequence": "GATGATTGTTCTCCCAGCTGATGAATTCTTCAACTCGAGTAAACAAATTTTCCTAATCTTTCTGTTCAAGCGCCATCTAC", "binding signal": "0.835 RPM ratio (pull-down/input)"}
{"sequence": "GATGATTGTTCTCCCAGCTGATGAATTAATTCGGTCGAGTAAACAAATTTTCCTAATCTTTCTGTTCAAGCGCCATCTAC", "binding signal": "0.851 RPM ratio (pull-down/input)"}
{"sequence": "GATGATTGTTCTCCCAGCTGATGAATTATGCGACTCGAGTAAACAAATTTTCCTAATCTTTCTGTTCAAGCGCCATCTAC", "binding signal": "1.01 RPM ratio (pull-down/input)"}
{"sequence": "GATGATTGTTCTCCCAGCTGATGAATTCATTCCTTCGAGTAAACAAATTTTCCTAATCTTTCTGTTCAAGCGCCATCTAC", "binding signal": "0.886 RPM ratio (pull-down/input)"}
{"sequence": "GATGATTGTTCTCCCAGCTGATGAATTGCCAAACTCGAGTAAACAAATTTTCCTAATCTTTCTGTTCAAGCGCCATCTAC", "binding signal": "1.02 RPM ratio (pull-down/input)"}
{"sequence": "GATGATTGTTCTCCCAGCTGATGAATTGGTGAAATCGAGTAAACAAATTTTCCTAATCTTTCTGTTCAAGCGCCATCTAC", "binding signal": "1.07 RPM ratio (pull-down/input)"}
{"sequence": "GATGATTGTTCTCCCAGCTGATGAATTGCTGTTATCGAGTAAACAAATTTTCCTAATCTTTCTGTTCAAGCGCCATCTAC", "binding signal": "1.85 RPM ratio (pull-down/input)"}
{"sequence": "GATGATTGTTCTCCCAGCTGATGAATTTACGAAATCGAGTAAACAAATTTTCCTAATCTTTCTGTTCAAGCGCCATCTAC", "binding signal": "1.42 RPM ratio (pull-down/input)"}
{"sequence": "GATGATTGTTCTCCCAGCTGATGAATTCCTGACTTCGAGTAAACAAATTTTCCTAATCTTTCTGTTCAAGCGCCATCTAC", "binding signal": "0.783 RPM ratio (pull-down/input)"}
{"sequence": "GATGATTGTTCTCCCAGCTGATGAATTTACCTGCTCGAGTAAACAAATTTTCCTAATCTTTCTGTTCAAGCGCCATCTAC", "binding signal": "1.08 RPM ratio (pull-down/input)"}
{"sequence": "GATGATTGTTCTCCCAGCTGATGAATTACGTGGCTCGAGTAAACAAATTTTCCTAATCTTTCTGTTCAAGCGCCATCTAC", "binding signal": "0.926 RPM ratio (pull-down/input)"}
{"sequence": "GATGATTGTTCTCCCAGCTGATGAATTCAGTGCGTCGAGTAAACAAATTTTCCTAATCTTTCTGTTCAAGCGCCATCTAC", "binding signal": "0.952 RPM ratio (pull-down/input)"}
{"sequence": "GATGATTGTTCTCCCAGCTGATGAATTAGCTTCGTCGAGTAAACAAATTTTCCTAATCTTTCTGTTCAAGCGCCATCTAC", "binding signal": "0.892 RPM ratio (pull-down/input)"}
{"sequence": "GATGATTGTTCTCCCAGCTGATGAATTAAACCCTTCGAGTAAACAAATTTTCCTAATCTTTCTGTTCAAGCGCCATCTAC", "binding signal": "0.938 RPM ratio (pull-down/input)"}
{"sequence": "GATGATTGTTCTCCCAGCTGATGAATTTCGAACGTCGAGTAAACAAATTTTCCTAATCTTTCTGTTCAAGCGCCATCTAC", "binding signal": "0.799 RPM ratio (pull-down/input)"}
{"sequence": "GATGATTGTTCTCCCAGCTGATGAATTTTTTCTTTCGAGTAAACAAATTTTCCTAATCTTTCTGTTCAAGCGCCATCTAC", "binding signal": "0.834 RPM ratio (pull-down/input)"}
{"sequence": "GATGATTGTTCTCCCAGCTGATGAATTCATCGACTCGAGTAAACAAATTTTCCTAATCTTTCTGTTCAAGCGCCATCTAC", "binding signal": "0.841 RPM ratio (pull-down/input)"}
{"sequence": "GATGATTGTTCTCCCAGCTGATGAATTATGGGACTCGAGTAAACAAATTTTCCTAATCTTTCTGTTCAAGCGCCATCTAC", "binding signal": "0.921 RPM ratio (pull-down/input)"}
{"sequence": "GATGATTGTTCTCCCAGCTGATGAATTCACGTCTTCGAGTAAACAAATTTTCCTAATCTTTCTGTTCAAGCGCCATCTAC", "binding signal": "0.955 RPM ratio (pull-down/input)"}
{"sequence": "GATGATTGTTCTCCCAGCTGATGAATTCTCGCTTTCGAGTAAACAAATTTTCCTAATCTTTCTGTTCAAGCGCCATCTAC", "binding signal": "1.04 RPM ratio (pull-down/input)"}
{"sequence": "GATGATTGTTCTCCCAGCTGATGAATTTCCTAACTCGAGTAAACAAATTTTCCTAATCTTTCTGTTCAAGCGCCATCTAC", "binding signal": "0.911 RPM ratio (pull-down/input)"}
{"sequence": "GATGATTGTTCTCCCAGCTGATGAATTTGACCATTCGAGTAAACAAATTTTCCTAATCTTTCTGTTCAAGCGCCATCTAC", "binding signal": "0.934 RPM ratio (pull-down/input)"}
{"sequence": "GATGATTGTTCTCCCAGCTGATGAATTCTAGGGGTCGAGTAAACAAATTTTCCTAATCTTTCTGTTCAAGCGCCATCTAC", "binding signal": "0.74 RPM ratio (pull-down/input)"}
{"sequence": "GATGATTGTTCTCCCAGCTGATGAATTTCTTACTTCGAGTAAACAAATTTTCCTAATCTTTCTGTTCAAGCGCCATCTAC", "binding signal": "0.956 RPM ratio (pull-down/input)"}
{"sequence": "GATGATTGTTCTCCCAGCTGATGAATTTTAATAATCGAGTAAACAAATTTTCCTAATCTTTCTGTTCAAGCGCCATCTAC", "binding signal": "1.3 RPM ratio (pull-down/input)"}
